Some of the results follow.
T1: UNK ZnF1-3 (human, UniProt Q9C0B0 31-174)
T1 sequence: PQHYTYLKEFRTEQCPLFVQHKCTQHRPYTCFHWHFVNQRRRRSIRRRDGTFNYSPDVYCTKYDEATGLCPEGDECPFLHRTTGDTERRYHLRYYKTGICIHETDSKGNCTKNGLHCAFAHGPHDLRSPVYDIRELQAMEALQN

B1: chr4:25749455:25749456:-_ENSG00000091490_ENST00000264868|hu_hu|hu_hu_hu_mus_False|38_98 (ssRNA)
RNA: GGGAGUUCUACAGUCCGACGAUCGCACUAUGACCUCCCCUAGAAAACACAGGGGGAAAAAAUGUAAACCAAUGUACAAUGUUAUCGCCUUCCCUGUAUUUCCAGGCUUUGUCUCAAGGCUCCUUCUAGCUGCUGGAUUUGGGACAACAGAGGAUUGAGCAUCA
B2: 98677862_98679720_10419_CDS_ENSMUSG00000048154_ENSMUST00000023741|mouse|control|control (ssRNA)
RNA: GGGAGUUCUACAGUCCGACGAUCGGCCUUUGCAAUAGGAUCAAUGAUGUCUUCUGCAGCAAAUUUGUCUAGGUCUGUGUCUGGGAAGAAACUAUUCGCCAGCUGCUGCUGCUGCAUCGCCAGCUGCUGGGGCUUCAUGCACAUCAACAGAGGAUUGAGCAUCA
B3: chr12:105536279:105536280:+_ENSG00000136051_ENST00000332180|hu_mus|hu_hu_hu_mus_True|1_18 (ssRNA)
RNA: GGGAGUUCUACAGUCCGACGAUCAGCACUGAACAUGUAAUGUAAUCUGGCUGCAUCGACAGCAUUUUCAUAUACAUCAUCUAAAUAAAUCGGGAAGACAGCGCGAUGCCAGUAUAAAAAACAACAGUCACACUGUGUUUGGACCAACAGAGGAUUGAGCAUCA
B4: 29435745_29437597_3071_CDS_ENSG00000153339_ENST00000582539|human|control|control (ssRNA)
RNA: GGGAGUUCUACAGUCCGACGAUCUGCAGUGUGUCUUAAUAUUCUGUGCCGUAUUUUUGGCUGCUUUUUGACACUUUCAUAGUAAAACAAAAAGUUAAUUUCAUGGACACCUUCUUCAUCAGGCCCACGUAACCACAUUGGCAGCAACAGAGGAUUGAGCAUCA
B5: chr4:39779992:39779993:+_ENSG00000078140_ENST00000510719|hu_hu|motif|central (ssRNA)
RNA: GGGAGUUCUACAGUCCGACGAUCCUCAGAAGCAAUUCUGUUGCAGUCUCUACAUCCCAUGAUUUUGAAGACAAGGCCACGGUUACUGCAUUCCUAUCAAAGCCCAUAGCACAUAGGUUUUCUAUUUUUUUGGUGUAUUCUGGACAACAGAGGAUUGAGCAUCA
B6: chr12:49579495:49579496:-_ENSG00000167552_ENST00000550767|hu_hu|motif|central (ssRNA)
RNA: GGGAGUUCUACAGUCCGACGAUCGGCUCCAUCAAAUCUCAGGGAAGCAGUGAUGGAGGACACAAUUUGACCUAUUAACCGGUUCAGGUUAGUAUAGGUUGGACGCUCAAUAUCGAGGUUUCUACGACAGAUGUCAUAGAUGGCCAACAGAGGAUUGAGCAUCA
B7: chr1:39494447:39494448:+_ENSG00000168653_ENST00000372967|hu_mus|hu_hu_hu_mus_False|88_98 (ssRNA)
RNA: GGGAGUUCUACAGUCCGACGAUCGCACCGAGCGGCGAUCUUGUAGGGCUGUUCACCGCUUAGGAACAUAAAGUGCCGGUCCAGGCUGAUGCCCAGCUUUUUCUGUAUGUCAAGGAAAGGCAUGGCUCUGCAGUGCCCUUGUCACAACAGAGGAUUGAGCAUCA
B8: chr2:85280848:85280849:+_ENSG00000176407_ENST00000409785|hu_hu|FALSE|FALSE (ssRNA)
RNA: GGGAGUUCUACAGUCCGACGAUCCAUGCAGUAGUUAAGGUAAACCAUCCAAGCAGUUUUUAUUCAUUAAUAUUCAUAAAUACACACAGCAGCUUCAUUAGAGAUUUCAAUUUUCCUCUUCAGUUUGAAUGUGGAGUAUUAGGACAACAGAGGAUUGAGCAUCA
B9: 48573448_48573568_92_3pUTR_ENSG00000141646_ENST00000592186|human|control|control (ssRNA)
RNA: GGGAGUUCUACAGUCCGACGAUCUUUUUCUCCUUCAGCUUCUUUACCAAACUUUCAAUUGCUCUUUUUGCAAAUGUUUCACUCUCUCCACCUUGUCUAUGGCACAUCAAACUAUGCACAAUGCUCAGACAGGCAUCAUUACUUCAACAGAGGAUUGAGCAUCA
B10: chr16:49915050:49915051:+_ENSMUSG00000055447_ENSMUST00000084838|mus_hu|FALSE|FALSE (ssRNA)
RNA: GGGAGUUCUACAGUCCGACGAUCAGUAUAUAUAAUAUUACAGGGUAAUAUUUACAAAGUUAUGUUUUUUUUUAAAUAAAAAAGUACCUUGGCAAAGAUUGCAGAUAUUCAAAGCUUUAAACAGUGAUAAAUUGAUUUAAUACACAACAGAGGAUUGAGCAUCA
B11: chr19:3544227:3544228:-_ENSMUSG00000024908_ENSMUST00000113997|mus_mus|FALSE|FALSE (ssRNA)
RNA: GGGAGUUCUACAGUCCGACGAUCAAAGAAAUGUUUUCUUCUCUGUGGCUCCUUGCCCAUUACAGGUUAUCCUGGUGACAGCUAUCUUCCAAAUUACAUUAGCAGAUUAGCAGAAGUAUGAAAGGAUAUUGUAUGAAACAGAAGCAACAGAGGAUUGAGCAUCA
B12: chr19:8913615:8913616:-_ENSMUSG00000071658_ENSMUST00000096259|mus_hu|mus_mus_mus_hu_False|48_68 (ssRNA)
RNA: GGGAGUUCUACAGUCCGACGAUCAGGGUACCAAAACCUUCUGCCUGAAAUGGGUGCCCCACCCAGUCAGGACUUGGAGCUGAAAGUAUCCGUAGCAGAAGCAGUGACUAUACGAAAGGAGGCCCCUGGGGAGGGCCAGGCCAGCAACAGAGGAUUGAGCAUCA
B13: chr11:102151369:102151370:-_ENSMUSG00000059995_ENSMUST00000137387|mus_mus|motif|central (ssRNA)
RNA: GGGAGUUCUACAGUCCGACGAUCUAUGCUUGGUAGUGGGGCCGGCCCGAGAACCUUCUUUCCCCCUCUAGCGAGAAGGCGGUGGAGGGCCAAGGACAGAGGGGCCCAGGCUCCAAGGAUUUAUUCUAACUCCUGCCAAAAUUACAACAGAGGAUUGAGCAUCA
B14: chr1:163122491:163122492:-_ENSG00000143248_ENST00000313961|hu_hu|FALSE|FALSE (ssRNA)
RNA: GGGAGUUCUACAGUCCGACGAUCGGCAAUCCAGAACUCAAGGUUUUCCUCACUGAAUUCAGACUUCAGGAAACUUUUGAAACUGGCAAGUCCAUAGUUGUUCUGCAGGAGUUUGUCCAGGGAAUCACGCCACUGCAGGGCCUCCAACAGAGGAUUGAGCAUCA
B15: 108216868_108216988_1542_3pUTR_ENSMUSG00000068740_ENSMUST00000090558|mouse|control|control (ssRNA)
RNA: GGGAGUUCUACAGUCCGACGAUCAGGACGGUGGCCUGGAAAGGGGUGCUGACAAAGAUGGGGGCGUUAUCGUUGAUGUCUAGGACUUGCACUGUUACUAGGCCAGAGACAUUGGAGAGUGGAGGACGGCCACCGUCCUGAGCCCAACAGAGGAUUGAGCAUCA
B16: chr11:87793471:87793472:-_ENSMUSG00000020483_ENSMUST00000020775|mus_mus|mus_mus_mus_hu_False|68_88 (ssRNA)
RNA: GGGAGUUCUACAGUCCGACGAUCUGGACUUGAAAAUAAAAGAAUAAGCUAGAUUUCCCACCCCCCCACAGUGUCAACCCUACACGAGAGUUUUGAAGGCGACUCAUGAAAAUCAGCAGCUCAAACGGCAAUGACCACCCCACCCAACAGAGGAUUGAGCAUCA
B17: chr1:84754351:84754352:-_ENSMUSG00000026219_ENSMUST00000027421|mus_hu|FALSE|FALSE (ssRNA)
RNA: GGGAGUUCUACAGUCCGACGAUCAGCAUGAUUUUUCAGAACAUCCUUCAGAAGUUCAGCAUCCGCAAAAUAAAUUAUCCUAAGAAUUGCUCUAAGGCACUUAUGUCUGACCGCAGGUCCUGCUGAGGAACUAUACACUUCAUACAACAGAGGAUUGAGCAUCA
B18: chr4:57860909:57860910:+_ENSG00000047315_ENST00000314595|hu_hu|motif|central (ssRNA)
RNA: GGGAGUUCUACAGUCCGACGAUCAUCUGUCAAGCCAUUCAAAAGGCAGUAAGUUGACCGCAACAUAAUUGGAAUUUUUCCGGUAAAAGUUUUCUGAUGCUGAGUCUGAAGUUGUUCUUCACCUUCUUUAAUGACUGUUUUUGUCAACAGAGGAUUGAGCAUCA
B19: chr1:21268426:21268427:-_ENSG00000075151_ENST00000400422|hu_mus|motif|central (ssRNA)
RNA: GGGAGUUCUACAGUCCGACGAUCGUUCUCCUUGGCUGAUAAUUUUUCUCCAACUCCAUUCAUUUCAUUAAUUAGGAUAGUACGGGAAAUUAGCUGACUAUCAUGAGGCGCUACGCUACAGGGUUUCUUGCAUAUAUCACUGUUCAACAGAGGAUUGAGCAUCA
B20: chr1:2330915:2330916:+_ENSG00000157916_ENST00000443438|hu_hu|motif|central (ssRNA)
RNA: GGGAGUUCUACAGUCCGACGAUCAGGACCGUCAUCUGAGUCUUCCAUUAAGGAAGGAUCCACUUUGGGAGAAAGAAAAGCGGUGAAAAGAUUUAGAUGGUAGAUCCCCAAGGCAUAGGUCACAAUGUACCAACCCUGCAGCAGCAACAGAGGAUUGAGCAUCA
B21: chr3:25639645:25639646:-_ENSG00000077097_ENST00000264331|hu_hu|FALSE|FALSE (ssRNA)
RNA: GGGAGUUCUACAGUCCGACGAUCAUCAGACAGUACGUGACAUUUCAAUGAGUAAAAAAGAGCAUAAAACUGUAUGUGUAAGAACAAAAUGUUAAAAGGCCUACCACAAUAAUAAAAAACCGUCAAUUACAUCAUCACAUUAAACAACAGAGGAUUGAGCAUCA
B22: chr9:95013113:95013114:-_ENSG00000196305_ENST00000443024|hu_hu|hu_hu_hu_mus_False|48_98 (ssRNA)
RNA: GGGAGUUCUACAGUCCGACGAUCCUCAGUCAGAAAGGGUGUGUAGGGGGCCAUCAGUCUGCACAGAGAAAGCAGGACACUGAACAGGGUUUCUAGGGCCAUGACACAGUCUUCCACCCCACUCUCACCCUUUAACCUCCUCCUCAACAGAGGAUUGAGCAUCA

These binders were tested against T1, UNK ZnF1-3 (assay: nsRBNS (natural sequence RNA bind-n-seq); RBNS binding buffer (assumed for nsRBNS): 25 mM Tris pH 7.5, 150 mM KCl, 3 mM MgCl2, 0.01% Triton X-100, 500 ug/ml BSA, 20 U/ml SUPERase-In, 4 C; UNK is unkempt and MSI1 is Musashi-1; names of the RNAs are library labels; protein concentration not given here; high values mean tight binding).

Binder	binding signal [enrichment R]
B1	1.08
B2	0.912
B3	1.79
B4	0.824
B5	0.776
B6	0.82
B7	0.679
B8	1.34
B9	0.64
B10	2.79
B11	1.17
B12	1.15
B13	0.662
B14	1
B15	1.05
B16	2.33
B17	1.67
B18	0.943
B19	0.99
B20	1.67
B21	1.45
B22	0.806

Source: PMC12136788
